# Experimental data taken from publication PMC4287443.
# By UniProt entry, the sequences of proteins in these tests, tags left out.
# UniProt P04147: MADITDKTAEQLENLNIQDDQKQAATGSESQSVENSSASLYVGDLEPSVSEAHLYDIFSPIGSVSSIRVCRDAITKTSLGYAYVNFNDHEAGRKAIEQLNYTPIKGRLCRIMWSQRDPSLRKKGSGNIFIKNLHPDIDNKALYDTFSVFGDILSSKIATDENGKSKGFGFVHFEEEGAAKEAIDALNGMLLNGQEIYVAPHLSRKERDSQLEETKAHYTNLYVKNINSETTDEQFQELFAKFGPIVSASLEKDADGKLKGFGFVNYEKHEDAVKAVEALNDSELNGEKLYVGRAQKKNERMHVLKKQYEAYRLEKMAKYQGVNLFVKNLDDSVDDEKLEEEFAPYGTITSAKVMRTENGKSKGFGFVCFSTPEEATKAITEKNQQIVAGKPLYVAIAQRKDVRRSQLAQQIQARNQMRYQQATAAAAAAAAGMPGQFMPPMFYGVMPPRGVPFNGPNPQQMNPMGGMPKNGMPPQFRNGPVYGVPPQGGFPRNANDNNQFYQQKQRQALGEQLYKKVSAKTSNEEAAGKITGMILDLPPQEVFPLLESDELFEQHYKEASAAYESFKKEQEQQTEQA
# No constants are given. Whether binding was seen depends on the method and setting. Binding seen in cells or lysates may run through a third protein. Some binding calls cover weakened binding; strength is not graded here.
# T1: Sro9p-TAP (S. cerevisiae) (UniProt P25567)
# T1 sequence: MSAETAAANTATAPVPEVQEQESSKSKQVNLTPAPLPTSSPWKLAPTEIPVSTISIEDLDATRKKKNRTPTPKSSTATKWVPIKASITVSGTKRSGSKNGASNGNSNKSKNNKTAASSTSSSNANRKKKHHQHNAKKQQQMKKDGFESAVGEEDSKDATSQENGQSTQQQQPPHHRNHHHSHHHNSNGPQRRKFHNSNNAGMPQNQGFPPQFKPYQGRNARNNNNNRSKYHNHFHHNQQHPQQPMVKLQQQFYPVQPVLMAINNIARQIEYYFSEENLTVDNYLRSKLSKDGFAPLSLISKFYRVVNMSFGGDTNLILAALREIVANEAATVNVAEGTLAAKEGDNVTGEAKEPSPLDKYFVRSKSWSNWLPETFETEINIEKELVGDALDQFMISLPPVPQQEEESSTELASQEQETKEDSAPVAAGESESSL
# T2: Slf1p-TAP (S. cerevisiae) (UniProt Q12034)
# T2 sequence: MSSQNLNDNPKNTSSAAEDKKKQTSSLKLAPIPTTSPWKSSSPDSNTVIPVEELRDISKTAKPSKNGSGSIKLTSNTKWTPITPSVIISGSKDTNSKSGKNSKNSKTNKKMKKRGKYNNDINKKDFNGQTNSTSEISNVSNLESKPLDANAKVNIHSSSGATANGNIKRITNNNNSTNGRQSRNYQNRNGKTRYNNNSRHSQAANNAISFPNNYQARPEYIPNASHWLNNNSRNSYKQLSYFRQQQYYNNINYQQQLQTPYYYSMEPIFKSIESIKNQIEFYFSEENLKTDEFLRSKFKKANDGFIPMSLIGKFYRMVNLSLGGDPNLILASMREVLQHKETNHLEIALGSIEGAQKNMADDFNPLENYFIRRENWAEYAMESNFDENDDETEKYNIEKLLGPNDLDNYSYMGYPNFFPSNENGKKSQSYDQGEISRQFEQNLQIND
# Legend:
# [1] = target: T1, Sro9p-TAP (S. cerevisiae); assay: co-IP; TAP-tagged bait captured from cleared yeast lysate on IgG paramagnetic beads, 20 min at 4°C, L buffer (20 mM Tris-HCl pH 8, 140 mM NaCl, 1 mM MgCl2, 0.5% NP40) with RNAsin, five washes, Western blot; unstressed cells and cells treated with 0.4 mM hydrogen peroxide for 15 min
# [2] = target: T2, Slf1p-TAP (S. cerevisiae); assay: as above
# [3] = target: T1, Sro9p-TAP (S. cerevisiae); assay: co-IP; as the TAP immunoprecipitation, but RNAsin omitted and 200 units of RNAse I added during the 20 minute immunoprecipitation; unstressed cells and cells treated with 0.4 mM hydrogen peroxide for 15 min
# [4] = target: T2, Slf1p-TAP (S. cerevisiae); assay: as above
binding [1],binding [2],binding [3],binding [4],Molecule
binds,binds,binds,binds,Pab1p (from UniProt P04147 1-577)
–,no binding,–,–,"Caf20p (protein, UniProt P12962 1-161) MIKYTIDELFQLKPSLTLEVNFDAVEFRAIIEKVKQLQHLKEEEFNSHHVGHFGRRRSSHHHGRPKIKHNKPKVTTDSDGWCTFEAKKKGSGEDDEEETETTPTSTVPVATIAQETLKVKPNNKNISSNRPADTRDIVADKPILGFNAFAALESEDEDDEA"
binds,binds,binds,binds,"Rps3p (protein, UniProt P05750 1-240) MVALISKKRKLVADGVFYAELNEFFTRELAEEGYSGVEVRVTPTKTEVIIRATRTQDVLGENGRRINELTLLVQKRFKYAPGTIVLYAERVQDRGLSAVAQAESMKFKLLNGLAIRRAAYGVVRYVMESGAKGCEVVVSGKLRAARAKAMKFADGFLIHSGQPVNDFIDTATRHVLMRQGVLGIKVKIMRDPAKSRTGPKALPDAVTIIEPKEEEPILAPSVKDYRPAEETEAQAEPVEA"
